# Measurements as given in the supplement of paper PMC8728848.
# Some of the results follow.
# B1: exo-alpha-sialidase (Propionibacterium acnes), Q6A7G1 (protein)
# chain: GSHMSGRAPAPVAATTQPKLVTGDITSTDQSGTNLFFGKKIVRNARGAIMKVDRTWPAAVPAPLPDVRADSSTRMLLGPVVDLAVNEHPEGVFYRIPALATASNGDLLASYDLRPGSAGDAPNPNSIVQRRSRDNGRTWGPQTVIHAGTPGRRKVGYSDPSYLVDPATGRILNFHVKSYDRGFATSEVGTDPDDRHVLHAEVSTSTDNGHTWTHRDITREITSDPTTRTRFVASGQGIALLHGPHAGRLIAQMTVRNSVGQQAQSIYSDDHGITWHAGNPVGRMMDENKVVELSDGTLMLNSRDAARSGRRKVAYSQDGGLTWGPVKLVDDLIDPTNNAQIIRAYPNARAGSAKARILLFTNARNATERVNGTLSVSCDDGRTWVSHQTYMPGEVGYTTAAVQSDGALGVLWERDGIRYSTIPMGWLNSVCPLAPSGRPTSGKPTSGTSLPPTAT
# Tests used:
# Experiment in all cases: glycan array binding signal (z-score within array); higher = stronger binding
# Settings in all cases: glycan notation: IUPAC condensed, linker removed
# [1] = target: Gal(b1-3)GlcNAc(b1-2)Man(a1-3)[Gal(b1-3)GlcNAc(b1-2)Man(a1-6)]Man(b1-4)GlcNAc(b1-4)[Fuc(a1-6)]GlcNAc
# Procedure, shortened: (§1)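 The binding signal is a Z-score computed within each array and averaged over linkers. Arrays of the same protein sequence at different concentrations or buffers were also averaged together. Data originate from 3228 arrays in the Consortium for Functional Glycomics database, kept only where the protein sequence was available.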
# [2] = target: Gal(b1-3)GlcNAc(b1-3)Gal(b1-3)GlcNAc
# Procedure, shortened: as §1
# [3] = target: Gal(b1-3)GlcNAc(b1-3)Gal(b1-4)Glc
# Procedure, shortened: as §1
# [4] = target: Gal(b1-3)GlcNAc(b1-3)Gal(b1-4)GlcNAc
# Procedure, shortened: as §1
# [5] = target: Gal(b1-3)GlcNAc(b1-3)Gal(b1-4)GlcNAc(b1-6)[Gal(b1-3)GlcNAc(b1-3)]Gal(b1-4)Glc
# Procedure, shortened: as §1
# [6] = target: Gal(b1-3)GlcNAc(b1-3)Gal(b1-4)[Fuc(a1-3)]GlcNAc(b1-6)[Gal(b1-3)GlcNAc(b1-3)]Gal(b1-4)Glc
# Procedure, shortened: as §1
# [7] = target: Gal(b1-3)GlcNAc(b1-3)GalNAc
# Procedure, shortened: as §1
# [8] = target: Gal(b1-3)GlcNAc(b1-6)Gal(b1-4)GlcNAc
# Procedure, shortened: as §1
# [9] = target: Gal(b1-3)[Fuc(a1-4)]GlcNAc
# Procedure, shortened: as §1
# [10] = target: Gal(b1-3)[Fuc(a1-4)]GlcNAc(b1-2)Man(a1-3)[Gal(b1-3)[Fuc(a1-4)]GlcNAc(b1-2)Man(a1-6)]Man(b1-4)GlcNAc(b1-4)GlcNAc
# Procedure, shortened: as §1
# [11] = target: Gal(b1-3)[Fuc(a1-4)]GlcNAc(b1-2)Man(a1-3)[Gal(b1-3)[Fuc(a1-4)]GlcNAc(b1-2)Man(a1-6)]Man(b1-4)GlcNAc(b1-4)[Fuc(a1-6)]GlcNAc
# Procedure, shortened: as §1
# [12] = target: Gal(b1-3)[Fuc(a1-4)]GlcNAc(b1-3)Gal(b1-3)[Fuc(a1-4)]GlcNAc
# Procedure, shortened: as §1
# [13] = target: Gal(b1-3)[Fuc(a1-4)]GlcNAc(b1-3)Gal(b1-4)GlcNAc
# Procedure, shortened: as §1
# [14] = target: Gal(b1-3)[Fuc(a1-4)]GlcNAc(b1-3)Gal(b1-4)[Fuc(a1-3)]GlcNAc
# Procedure, shortened: as §1
# [15] = target: Gal(b1-3)[GlcNAc(b1-6)]GalNAc
# Procedure, shortened: as §1
# [16] = target: Gal(b1-3)[Neu5Ac(a2-6)]GalNAc
# Procedure, shortened: as §1
# [17] = target: Gal(b1-3)[Neu5Ac(a2-6)]GlcNAc(b1-6)Gal(b1-4)Glc
# Procedure, shortened: as §1
# [18] = target: Gal(b1-3)[Neu5Ac(b2-6)]GalNAc
# Procedure, shortened: as §1
# [19] = target: Gal(b1-4)GalNAc(a1-3)[Fuc(a1-2)]Gal(b1-4)GlcNAc
# Procedure, shortened: as §1
# [20] = target: Gal(b1-4)GalNAc(b1-3)[Fuc(a1-2)]Gal(b1-4)GlcNAc
# Procedure, shortened: as §1
# [21] = target: Gal(b1-4)Glc
# Procedure, shortened: as §1
# [22] = target: Gal(b1-4)Glc6S
# Procedure, shortened: as §1
# [23] = target: Gal(b1-4)GlcNAc
# Procedure, shortened: as §1
# [24] = target: Gal(b1-4)GlcNAc(a1-6)Gal(b1-4)GlcNAc
# Procedure, shortened: as §1
# [25] = target: Gal(b1-4)GlcNAc(b1-2)Man(a1-3)Man(b1-4)GlcNAc(b1-4)GlcNAc
# Procedure, shortened: as §1
# [26] = target: Gal(b1-4)GlcNAc(b1-2)Man(a1-3)[Gal(b1-4)GlcNAc(b1-2)Man(a1-6)]Man(b1-4)GlcNAc(b1-4)GlcNAc
# Procedure, shortened: as §1
# [27] = target: Gal(b1-4)GlcNAc(b1-2)Man(a1-3)[Gal(b1-4)GlcNAc(b1-2)Man(a1-6)]Man(b1-4)GlcNAc(b1-4)[Fuc(a1-6)]GlcNAc
# Procedure, shortened: as §1
# [28] = target: Gal(b1-4)GlcNAc(b1-2)Man(a1-3)[GlcNAc(b1-2)Man(a1-6)]Man(b1-4)GlcNAc(b1-4)GlcNAc
# Procedure, shortened: as §1
# [29] = target: Gal(b1-4)GlcNAc(b1-2)Man(a1-3)[Man(a1-6)]Man(b1-4)GlcNAc(b1-4)GlcNAc
# Procedure, shortened: as §1
# [30] = target: Gal(b1-4)GlcNAc(b1-2)Man(a1-6)Man(b1-4)GlcNAc(b1-4)GlcNAc
# Procedure, shortened: as §1
# [31] = target: Gal(b1-4)GlcNAc(b1-2)Man(a1-6)[GlcNAc(b1-2)Man(a1-3)]Man(b1-4)GlcNAc(b1-4)GlcNAc
# Procedure, shortened: as §1
# [32] = target: Gal(b1-4)GlcNAc(b1-2)Man(a1-6)[Man(a1-3)]Man(b1-4)GlcNAc(b1-4)GlcNAc
# Procedure, shortened: as §1
# [33] = target: Gal(b1-4)GlcNAc(b1-2)[Gal(b1-4)GlcNAc(b1-4)]Man(a1-3)[Gal(b1-4)GlcNAc(b1-2)Man(a1-6)]Man(b1-4)GlcNAc(b1-4)GlcNAc
# Procedure, shortened: as §1
# [34] = target: Gal(b1-4)GlcNAc(b1-2)[Gal(b1-4)GlcNAc(b1-4)]Man(a1-3)[Gal(b1-4)GlcNAc(b1-2)[Gal(b1-4)GlcNAc(b1-6)]Man(a1-6)]Man(b1-4)GlcNAc(b1-4)GlcNAc
# Procedure, shortened: as §1
# [35] = target: Gal(b1-4)GlcNAc(b1-3)Gal(b1-3)GlcNAc
# Procedure, shortened: as §1
# [36] = target: Gal(b1-4)GlcNAc(b1-3)Gal(b1-4)Glc
# Procedure, shortened: as §1
# [37] = target: Gal(b1-4)GlcNAc(b1-3)Gal(b1-4)GlcNAc
# Procedure, shortened: as §1
# [38] = target: Gal(b1-4)GlcNAc(b1-3)Gal(b1-4)GlcNAc(b1-3)Gal(b1-4)GlcNAc
# Procedure, shortened: as §1
binder,measurement,setting,value
B1,glycan array binding signal (z-score),[1],-0.358
same,glycan array binding signal (z-score),[2],-0.354
same,glycan array binding signal (z-score),[3],-0.329
same,glycan array binding signal (z-score),[4],-0.328
same,glycan array binding signal (z-score),[5],-0.36
same,glycan array binding signal (z-score),[6],-0.381
same,glycan array binding signal (z-score),[7],-0.355
same,glycan array binding signal (z-score),[8],-0.367
same,glycan array binding signal (z-score),[9],-0.335
same,glycan array binding signal (z-score),[10],-0.37
same,glycan array binding signal (z-score),[11],-0.363
same,glycan array binding signal (z-score),[12],-0.352
same,glycan array binding signal (z-score),[13],-0.348
same,glycan array binding signal (z-score),[14],-0.357
same,glycan array binding signal (z-score),[15],-0.366
same,glycan array binding signal (z-score),[16],-0.182
same,glycan array binding signal (z-score),[17],0.97
same,glycan array binding signal (z-score),[18],-0.348
same,glycan array binding signal (z-score),[19],-0.35
same,glycan array binding signal (z-score),[20],-0.351
same,glycan array binding signal (z-score),[21],-0.331
same,glycan array binding signal (z-score),[22],-0.311
same,glycan array binding signal (z-score),[23],-0.353
same,glycan array binding signal (z-score),[24],-0.353
same,glycan array binding signal (z-score),[25],-0.361
same,glycan array binding signal (z-score),[26],-0.339
same,glycan array binding signal (z-score),[27],-0.354
same,glycan array binding signal (z-score),[28],-0.366
same,glycan array binding signal (z-score),[29],-0.316
same,glycan array binding signal (z-score),[30],-0.368
same,glycan array binding signal (z-score),[31],-0.373
same,glycan array binding signal (z-score),[32],-0.349
same,glycan array binding signal (z-score),[33],-0.333
same,glycan array binding signal (z-score),[34],-0.37
same,glycan array binding signal (z-score),[35],-0.363
same,glycan array binding signal (z-score),[36],-0.357
same,glycan array binding signal (z-score),[37],-0.294
same,glycan array binding signal (z-score),[38],-0.366
